# Test results published in PubChem BioAssay AID2100 (National Center for Advancing Translational Sciences (NCATS), 2009).
# Screen size: about 300,000 compounds; about 1,200 (0.4%) were called active. The shares of active, inactive and inconclusive entries below differ from those in the screen. Calls follow the shape of the dose curve; as a rule, active = well fitted inhibition curve with a large enough effect; inconclusive = small, poorly fitted or top-dose-only effect, or another doubt; inactive = no such curve, though single readings can be large or run the other way. Potencies beside an inconclusive call are fits to weak or partial responses and may not hold up.
# Target: Lysosomal alpha-glucosidase (Homo sapiens) (UniProt P10253)
# Test: qHTS Assay for Inhibitors and Activators of Human alpha-Glucosidase Cleavage of Glycogen;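 as to activity change, negative = inhibition: 0% = full enzyme reaction and -100% = no-enzyme basal signal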
# Conditions: recombinant GAA, glycogen substrate, Amplex Red glucose oxidase fluorescence; activity change, negative = inhibition: at 76.4 µM (top of the series) unless noted
# In short: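 Natural-substrate format: glycogen cleavage by 4 nM human enzyme, glucose read by Amplex Red coupling (Ex 573, Em 610 nm). Normalized to enzyme and no-enzyme controls.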
# Potency is read from the fitted curve at half-maximal effect.
SMILES,Potency,"activity change, negative = inhibition"
COc1ccccc1Nc1nc(C)cc(C)c1C(N)=O,inactive,
C/C(=N/NC(=O)c1ccccn1)c1ccco1,"inconclusive: 39.8 µM [inhibitor, single point]",
CCCCC(=O)NC(=S)NNS(=O)(=O)c1ccccc1,"inconclusive: 14.1 µM [inhibitor, partial curve]",
O=C(NCC(c1cccnc1)N1CCN(c2ccc(F)cc2)CC1)OCc1ccccc1 (stereo not drawn),,inconclusive: 33.7% [activator]
CC(NCc1ccc2c(c1)OCO2)C(=O)NC1CCCCC1 (stereo not drawn),"inconclusive: 35.5 µM [inhibitor, partial curve]",
CCSc1ncc(/C=N/Nc2ccc(F)cc2)n1C,"inconclusive: 14.1 µM [inhibitor, partial curve]",
CC(C)CCOCC(O)CCC(=O)NNC(=S)Nc1ccccc1 (stereo not drawn),"inconclusive: 25.1 µM [inhibitor, partial curve]",
COc1ccccc1N(O)C1CC(=O)N(c2ccc(F)cc2)C1=O (stereo not drawn),active: 17.8 µM,
COc1ccccc1C(=O)Nc1cc2ccccc2oc1=O,"inconclusive: 39.5 µM [inhibitor, single point]",
CNC(=S)N1N=C(c2ccc(Br)cc2)CC1c1ccc(OC)cc1 (stereo not drawn),"inconclusive: 11.2 µM [inhibitor, partial curve]",
Cc1ccc(Cl)cc1Nc1nc(-c2sc(NC(=O)c3ccco3)nc2C)cs1,"inconclusive: 25.1 µM [inhibitor, single point]",
COC(=O)c1cc(C(=O)c2ccc(C(C)(C)C)cc2)c[nH]1,inactive,
CCCCN=c1scc(-c2ccc3c(c2)NC(=O)CO3)n1N=C1CCCC1,"inconclusive: 44.7 µM [inhibitor, partial curve, poor fit]",
Cc1sc(NC(=O)c2ccco2)c(C(Nc2ccccn2)c2ccccc2)c1C (stereo not drawn),"inconclusive: 10 µM [inhibitor, full curve]",
Cc1cccn2c(CN3CCSCC3)c(C(=O)N3CCOCC3)nc12,inactive,
Cc1cc(=O)oc2cc(NS(=O)(=O)c3ccccc3)ccc12,inactive,
NC(=S)NNC(=O)COc1ccccc1O,"inconclusive: 25.1 µM [inhibitor, partial curve]",
CC(=O)NNS(=O)(=O)c1ccccc1[N+](=O)[O-],inactive,
COc1ccc(CNC(=O)C2CCN(S(=O)(=O)N3CCOCC3)CC2)cc1,"inconclusive: 44.7 µM [inhibitor, single point]",
Nc1nc2ccc(O)cc2s1,"inconclusive: 20 µM [inhibitor, partial curve]",
Cc1ccc(/C=N/c2sc3c(c2C#N)CCC3)s1,active: 28 µM,
COc1cc(NC2CCCCC2O)c2nc(-c3ccc(Cl)cc3)ccc2c1 (stereo not drawn),inactive,
COc1ccc(Cn2nnnc2C(C(C)C)N2CCc3ccccc32)cc1 (stereo not drawn),"inconclusive: 28 µM [inhibitor, partial curve]",
Oc1ccc(Nc2ccnc3cc(Cl)ccc23)cc1,active: 12.6 µM,

SMILES,Potency,"activity change, negative = inhibition"
CCN(CC)C1=CC2=CC(=C(C#N)C#N)CCC2CC1 (stereo not drawn),inactive,
Oc1c(Br)cccc1/C=N/Nc1c(F)c(F)c(F)c(F)c1F,"inconclusive: 39.8 µM [inhibitor, partial curve]",
CCc1cc(/C(Cc2csc(C)n2)=N/O)c(O)cc1O,"inconclusive: 24.9 µM [inhibitor, partial curve]",
COc1ccccc1NCC(=O)NNCC(=O)Nc1ccc(F)c(Cl)c1,"inconclusive: 31.6 µM [inhibitor, partial curve]",
Oc1ccc(N2CCN(C(c3ccncc3)c3nnnn3C3CCCC3)CC2)cc1 (stereo not drawn),active: 12.5 µM,
CC1CCN(C2=C(NS(=O)(=O)c3ccc(Br)cc3)C(=O)c3ccccc3C2=O)CC1,"inconclusive: 17.8 µM [inhibitor, partial curve]",
CCOC(=O)NNc1ccc2nonc2c1[N+](=O)[O-],inactive,
Cc1[nH]c2ccccc2c1/C=N/Nc1cccc(C(=O)O)c1,"inconclusive: 5.01 µM [inhibitor, single point]",
Cc1c(C2=CCN(S(=O)(=O)c3ccc(CC(C)C)cc3)CC2)c2ccccc2n1CC(=O)N1CCCC1,inactive,
Cc1cccnc1Nc1nc(-c2ccc(O)c(O)c2)cs1,active: 7.08 µM,
CC(C)c1ccc(S(=O)(=O)/N=C2/C=C(Sc3ncn[nH]3)C(=O)c3ccccc32)cc1,"inconclusive: 31.6 µM [inhibitor, partial curve]",
CCC(c1nnc(SCC(=O)Nc2nnc(-c3ccccc3)o2)o1)N(C)C (stereo not drawn),"inconclusive: 31.4 µM [inhibitor, partial curve]",
Cc1ccc(C(=O)c2cc(C)sc2N)cc1,"inconclusive: 39.8 µM [inhibitor, partial curve]",
CC(=O)Nc1sc(NC(=O)c2ccco2)nc1-c1cccs1,"inconclusive: 50.1 µM [inhibitor, single point]",
Cc1ccc(NC(=O)C(NS(=O)(=O)c2ccc3c(c2)CCC(=O)N3)c2ccccc2)cc1C (stereo not drawn),inactive,
Cc1[nH]n(-c2ccc(F)cc2)c(=O)c1/C=N/c1sc2c(c1C#N)CCCC2,"inconclusive: 15.8 µM [inhibitor, partial curve]",
CN1C(=O)C(Cc2cnc[nH]2)NC1=S (stereo not drawn),"inconclusive: 50.1 µM [inhibitor, single point]",
Cc1ccc(Cl)cc1NC(=O)Nc1cccs1,"inconclusive: 12.6 µM [inhibitor, partial curve]",
COc1ccc(Br)cc1S(=O)(=O)NNC(=O)c1c(C)nc2ccccn12,active: 10 µM,
O=C(Nc1cccc(C(F)(F)F)c1)C1CCCN1S(=O)(=O)c1cccc2cccnc12 (stereo not drawn),"inconclusive: 20 µM [inhibitor, partial curve]",
CCC(=O)N1CCc2cc(Br)cc(S(=O)(=O)CCC(=O)N3CCN(c4ccccc4F)CC3)c21,inactive,
Cc1cc2n(n1)C(c1ccccc1Cl)Nc1ccccc1-2 (stereo not drawn),"inconclusive: 35.5 µM [inhibitor, single point]",
O=C(C1CCN(S(=O)(=O)Cc2ccccc2)CC1)N1CCN(c2ccccc2)CC1,inactive,
CCCCS(=O)(=O)Nc1ccc(C)cn1,inactive,
